We go through 54 compounds from ChEMBL document CHEMBL4888484, “Replenishing the malaria drug discovery pipeline: Screening and hit evaluation of the MMV Hit Generation Library 1 (HGL1) against asexual blood stage Plasmodium falciparum ,using a nano luciferase reporter read-out” (2022).

Out of some 150,000 compounds screened, about 540 (0.36%) showed an effect of 50% or more. Some of the results follow.

The experiment relates to Plasmodium falciparum. Nature of the experiment: Primary screen in NF54 nanoGlo assay, in single point, at 2uM, 72h; a lower Z score goes with more inhibition. In kind it is functional, Erythrocyte. Particulars: timepoint 72 hour.
For `Cc1ccccc1-c1ccc(C(=O)NC2CCOCC2)nc1`, the % Inhibition (commonly the change of the read-out against control, counted positive when it falls) worked out at 0% and the Z score is given as 0.01.

Regarding `O=C(CCn1cncn1)N1CCN(Cc2ccc(-c3cccc(Cl)c3)s2)CC1`, the “% Inhibition” value amounted to 11% and the Z score is -1.55.

In the case of `CN(CCc1ccccc1)[C@H]1CCCN(Cc2cccc3cccnc23)C1`, the “% Inhibition” value is on record as -10% and the Z score was found to be 1.81.

`N#CCCN1CCN(c2cc(C(=O)O)c3cc(NC(=O)COc4ccccc4)ccc3n2)CC1`: the “% Inhibition” value was -7% and the Z score was found to be 0.81.

Turning to `CCCc1cc(C(=O)N(Cc2ccco2)C2CCN(C)CC2)no1`, the “% Inhibition” value is given as -6% and the Z score came out at 0.77.

On to `CCC(C)C(CO)NC(=O)c1cccc[n+]1[O-]` (stereo not drawn), for which the “% Inhibition” value is on record as -17% and the Z score came out at 1.47.

As for `Cc1ccc2ncc(-c3cncc(N)c3)cc2c1`, the “% Inhibition” value is -2% and the Z score is given as 0.41.

`CCN(CC(=O)Nc1ccc(NC(C)=O)cc1)Cc1cc(Cl)cc2c1OCOC2`: the “% Inhibition” value is -20% and the Z score was found to be 2.78.

`CCCc1cncnc1N[C@H]1CCOC[C@@H]1OCCN(C)C`: the “% Inhibition” value is -1% and the Z score was found to be 0.25.

Regarding `COc1ccccc1CCNC(=O)c1csc(NC2CC2)n1`, the “% Inhibition” value is on record as -3% and the Z score worked out at 0.34.

`CNc1cc([C@H]2C[C@@H](NC(=O)C3=Cc4ccccc4OC=C3)C2)ncn1`: the “% Inhibition” value is listed as -17% and the Z score is on record as 3.15.

Regarding `CCCNC(=O)C1C(c2cccc(NC(=O)c3cccc(Cl)c3)c2)OC(=O)N1Cc1ccc(C)cc1` (stereo not drawn), the “% Inhibition” value was -8% and the Z score was determined as 1.28.

In the case of `CN(CC(=O)Nc1cc(S(=O)(=O)N2CCCC2)ccc1Cl)Cc1cccs1`, the “% Inhibition” value stood at 4% and the Z score is reported as -0.5.

Regarding `CC(=O)N1CCc2c(NC(=O)NC[C@H]3CCCS3(=O)=O)cccc21`, the “% Inhibition” value was found to be 9% and the Z score was -1.83.

Take `COc1ccc2c(=O)c(C(=O)c3ccncc3)cn(CC(=O)Nc3c(C)cccc3C)c2c1`: the “% Inhibition” value is listed as 3% and the Z score was -0.42.

Take `CCNC(=O)[C@H]1CCN(CC(=O)NC2CCCCCCC2)C1`: the “% Inhibition” value is -1% and the Z score amounted to 0.28.

For `CCOCC(=O)N[C@H]1CC(=O)Nc2ccccc21`, the “% Inhibition” value is recorded as -11% and the Z score is reported as 1.52.

As for `COC(=O)C1CCN2C(=O)N(c3ccc(F)cc3C)C(=O)C2C1` (stereo not drawn), the “% Inhibition” value is -15% and the Z score is reported as 2.31.

Turning to `CS(=O)(=O)c1ccsc1NC(=O)C[C@H](n1cccn1)C(F)(F)F`, the “% Inhibition” value is -10% and the Z score came to 0.98.

As to `COCC[C@H](NC(=O)COc1cc(C)ccc1C)C(N)=O`, the “% Inhibition” value was -27% and the Z score is 2.75.

With `COc1ccccc1-c1c(Cc2ccccc2)nn2c(C(F)(F)F)cc(-c3cccs3)nc12`, the “% Inhibition” value is on record as -9% and the Z score amounted to 1.67.

Consider `Cc1nc2ccccc2n1Cc1cc(C(=O)N(C)Cc2cccnc2)no1`, for which the “% Inhibition” value is given as -4% and the Z score is listed as 0.58.

In the case of `Cc1nc(NS(=O)(=O)c2ccccc2)sc1C(=O)NCc1ccco1`, the “% Inhibition” value was determined as 4% and the Z score is listed as -0.49.

For `O=C1OCC[C@@H]1N1CCN(C(=O)c2ccc(F)cc2)CC1`, the “% Inhibition” value is listed as -11% and the Z score came to 0.97.

With `Cc1ccc(CN(C(=O)c2cnn(C(C)C)c2)C2CCCC2)s1`, the “% Inhibition” value is -13% and the Z score is given as 1.17.

In the case of `Cc1cc(C)n(CCC(=O)N2CCN(c3nonc3C)CC2)n1`, the “% Inhibition” value is -7% and the Z score amounted to 1.19.

Take `CCCn1c(=O)c(C(=O)NC[C@H]2CCCO2)nn(-c2ccc(Cl)cc2)c1=O`: the “% Inhibition” value came to 0% and the Z score came to 0.07.

On to `COCCn1c(C)cnc1[C@H]1CCN(C(=O)c2ccc(OC)c(F)c2)C1`, for which the “% Inhibition” value is -8% and the Z score turned out to be 1.13.

As for `Cc1cccnc1CN(CC1CCCO1)C1CCS(=O)(=O)C1` (stereo not drawn), the “% Inhibition” value was -11% and the Z score was determined as 1.1.

On to `O=C(CNC(=O)[C@H]1C[C@@H]1c1ccncc1)NC1CCCCC1`, for which the “% Inhibition” value is 3% and the Z score is listed as -0.36.

On to `O=C(COc1ccccc1)Nc1ccc(C(c2ccccc2)(c2ccccc2)c2ccccc2)cc1`, for which the “% Inhibition” value is given as -4% and the Z score was 0.51.

Turning to `Cc1nc(C)c(CC(=O)Nc2cccc(Br)c2)c(=O)[nH]1`, the “% Inhibition” value is -13% and the Z score amounted to 1.45.

Consider `O=C(c1cccs1)N1CCC[C@H](c2nnc3ccccn23)C1`, for which the “% Inhibition” value was found to be 2% and the Z score is -0.35.

Regarding `CC(C)C[C@H]1C(=O)N2C[C@@H](N(C)C)C[C@H]2CN1C(=O)Cc1ccsc1`, the “% Inhibition” value is -10% and the Z score stood at 1.17.

Take `OCc1cnccc1N1CCC[C@H](n2ccnc2)C1`: the “% Inhibition” value is -12% and the Z score was found to be 1.52.

Take `CN(C)C(=NCCCOC1CCOCC1)N(C)C`: the “% Inhibition” value is given as 0% and the Z score was found to be 0.01.

For the compound `COCCc1nc(CN2CC[C@H](N(C)C)C2)n(Cc2cccc(C)c2)n1`, the “% Inhibition” value is given as -15% and the Z score turned out to be 1.93.

For the compound `Nc1cccc(Oc2c(F)c(F)c(Oc3cccc(N)c3)c(F)c2F)c1`, the “% Inhibition” value is 2% and the Z score is recorded as -0.23.

Turning to `c1ccc(-c2nnc(N3CC4(CCOCC4)[C@@H]4CCC[C@@H]43)s2)nc1`, the “% Inhibition” value amounted to 11% and the Z score is listed as -2.05.

Turning to `Cc1nnsc1CN(C)Cc1cncn1C(C)C`, the “% Inhibition” value is -6% and the Z score worked out at 1.

Turning to `O=C(NCC1CC1)c1ccc(CN2CCN(c3cccc(Cl)c3)CC2)o1`, the “% Inhibition” value is reported as -13% and the Z score is recorded as 1.77.

As for `COc1ccc(OC)c(NC(=O)Cn2cnc3cc4c(cc32)OCCO4)c1`, the “% Inhibition” value is listed as -9% and the Z score is listed as 0.87.

Regarding `O=C(NC1CCN(C(=O)N2CCCCC2)CC1)c1ccc(O)c(Cl)c1`, the “% Inhibition” value was 3% and the Z score is on record as -0.39.

For `Cc1noc(C)c1CN1CCCS1(=O)=O`, the “% Inhibition” value is 12% and the Z score was -1.18.

Regarding `CCN(CC)c1ncnc(Oc2ccc(F)cc2)c1N`, the “% Inhibition” value is given as -5% and the Z score came out at 0.57.

Consider `Cc1c(C(=O)N(Cc2ccncc2)Cc2cccs2)nnn1C`, for which the “% Inhibition” value came to 2% and the Z score is given as -0.44.

Take `C[C@H](NC(=O)c1nnn(C)c1C(F)(F)F)c1cscn1`: the “% Inhibition” value is reported as 30% and the Z score is given as -1.45.

Turning to `COc1ccc(NC(=O)Cc2nc(Cc3cccc(C)c3)n[nH]2)cc1Cl`, the “% Inhibition” value is -1% and the Z score is on record as 0.14.

For `CS(=O)(=O)c1ccc(C2(NC(=O)[C@H]3C[C@@H]3c3cccnc3)CCOC2)cc1` (stereo partly drawn), the “% Inhibition” value is reported as -6% and the Z score is 1.08.

For `Oc1cccc(CC[C@H]2CCCCN2Cc2cscn2)c1`, the “% Inhibition” value is reported as -14% and the Z score is listed as 1.92.

As for `Cc1c[nH]c(CN(C)Cc2nccn2C(C)C)n1`, the “% Inhibition” value came out at 11% and the Z score is -1.94.

Consider `Cc1cccnc1CN(C)C(=O)c1cc(-c2cn[nH]c2)nc2cc(Cl)ccc12`, for which the “% Inhibition” value is given as -15% and the Z score was 2.17.

Take `O=C(N[C@H]1CC[C@@H](CO)C1)c1ccnc(C2CC2)c1`: the “% Inhibition” value is recorded as -3% and the Z score is given as 0.4.

Consider `O=S(=O)(NCC1CCCC1O)c1ccc2cn[nH]c2c1` (stereo not drawn), for which the “% Inhibition” value is listed as -12% and the Z score is listed as 1.05.
